Paper PMC12820563
This is one part of the list. The list includes weakly bound sequences.

What follows are sequences tested against T1, MBP-FoxP3dN (UniProt Q99JB6) (assay: PD-seq (MBP pull-down with sequencing)). Conditions: 20 mM Tris-HCl pH 7.5, 100 mM NaCl, 1.5 mM MgCl2, 0.4 uM protein, 0.1 uM dsDNA library, 30 min, room temperature, amylose pull-down; high values mean tight binding; double strand, one strand shown.
T1 sequence: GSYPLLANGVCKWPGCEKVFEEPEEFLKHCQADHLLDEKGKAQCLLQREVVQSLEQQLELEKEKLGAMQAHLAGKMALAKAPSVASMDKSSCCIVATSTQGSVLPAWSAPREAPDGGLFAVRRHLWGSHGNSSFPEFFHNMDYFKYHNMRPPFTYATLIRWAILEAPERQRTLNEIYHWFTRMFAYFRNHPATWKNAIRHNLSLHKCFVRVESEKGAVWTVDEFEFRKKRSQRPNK

Sequence | binding signal (RPM ratio (pull-down/input))
GATGATTGTTCTCCCAGCTGATGAATTAGGTGCTTCGAGTAAACAAATTTTCCTAATCTTTCTGTTCAAGCGCCATCTAC | 0.806
GATGATTGTTCTCCCAGCTGATGAATTACCTGCATCGAGTAAACAAATTTTCCTAATCTTTCTGTTCAAGCGCCATCTAC | 0.918
GATGATTGTTCTCCCAGCTGATGAATTCGTAGAGTCGAGTAAACAAATTTTCCTAATCTTTCTGTTCAAGCGCCATCTAC | 0.323
GATGATTGTTCTCCCAGCTGATGAATTCACAGGTTCGAGTAAACAAATTTTCCTAATCTTTCTGTTCAAGCGCCATCTAC | 0.281
GATGATTGTTCTCCCAGCTGATGAATTGTCGAGGTCGAGTAAACAAATTTTCCTAATCTTTCTGTTCAAGCGCCATCTAC | 0.266
GATGATTGTTCTCCCAGCTGATGAATTGCTCGATTCGAGTAAACAAATTTTCCTAATCTTTCTGTTCAAGCGCCATCTAC | 0.514
GATGATTGTTCTCCCAGCTGATGAATTTCATGATTCGAGTAAACAAATTTTCCTAATCTTTCTGTTCAAGCGCCATCTAC | 0.692
GATGATTGTTCTCCCAGCTGATGAATTAGGCGGATCGAGTAAACAAATTTTCCTAATCTTTCTGTTCAAGCGCCATCTAC | 0.513
GATGATTGTTCTCCCAGCTGATGAATTGGTGCTTTCGAGTAAACAAATTTTCCTAATCTTTCTGTTCAAGCGCCATCTAC | 1.06
GATGATTGTTCTCCCAGCTGATGAATTCTAGACATCGAGTAAACAAATTTTCCTAATCTTTCTGTTCAAGCGCCATCTAC | 0.391
GATGATTGTTCTCCCAGCTGATGAATTGGGTTTGTCGAGTAAACAAATTTTCCTAATCTTTCTGTTCAAGCGCCATCTAC | 2.38
GATGATTGTTCTCCCAGCTGATGAATTAAATCCTTCGAGTAAACAAATTTTCCTAATCTTTCTGTTCAAGCGCCATCTAC | 0.25
GATGATTGTTCTCCCAGCTGATGAATTGCGATGTTCGAGTAAACAAATTTTCCTAATCTTTCTGTTCAAGCGCCATCTAC | 2.02
GATGATTGTTCTCCCAGCTGATGAATTAGATAGTTCGAGTAAACAAATTTTCCTAATCTTTCTGTTCAAGCGCCATCTAC | 0.959
GATGATTGTTCTCCCAGCTGATGAATTAGCCAGATCGAGTAAACAAATTTTCCTAATCTTTCTGTTCAAGCGCCATCTAC | 0.176
GATGATTGTTCTCCCAGCTGATGAATTCTGCTTGTCGAGTAAACAAATTTTCCTAATCTTTCTGTTCAAGCGCCATCTAC | 4.57
GATGATTGTTCTCCCAGCTGATGAATTGCGTACCTCGAGTAAACAAATTTTCCTAATCTTTCTGTTCAAGCGCCATCTAC | 1.42
GATGATTGTTCTCCCAGCTGATGAATTCTGCAGCTCGAGTAAACAAATTTTCCTAATCTTTCTGTTCAAGCGCCATCTAC | 2.66
GATGATTGTTCTCCCAGCTGATGAATTTCGTCCCTCGAGTAAACAAATTTTCCTAATCTTTCTGTTCAAGCGCCATCTAC | 0.799
GATGATTGTTCTCCCAGCTGATGAATTTCGTTCATCGAGTAAACAAATTTTCCTAATCTTTCTGTTCAAGCGCCATCTAC | 0.585
GATGATTGTTCTCCCAGCTGATGAATTCGCGTGGTCGAGTAAACAAATTTTCCTAATCTTTCTGTTCAAGCGCCATCTAC | 1.61

Sequence | binding signal (RPM ratio (pull-down/input))
GATGATTGTTCTCCCAGCTGATGAATTAAGTCCTTCGAGTAAACAAATTTTCCTAATCTTTCTGTTCAAGCGCCATCTAC | 0.358
GATGATTGTTCTCCCAGCTGATGAATTGAATATTTCGAGTAAACAAATTTTCCTAATCTTTCTGTTCAAGCGCCATCTAC | 0.671
GATGATTGTTCTCCCAGCTGATGAATTATGTGCATCGAGTAAACAAATTTTCCTAATCTTTCTGTTCAAGCGCCATCTAC | 2.21
GATGATTGTTCTCCCAGCTGATGAATTAAATTTGTCGAGTAAACAAATTTTCCTAATCTTTCTGTTCAAGCGCCATCTAC | 1.61
GATGATTGTTCTCCCAGCTGATGAATTGACCCGTTCGAGTAAACAAATTTTCCTAATCTTTCTGTTCAAGCGCCATCTAC | 0.292
GATGATTGTTCTCCCAGCTGATGAATTAGGGATGTCGAGTAAACAAATTTTCCTAATCTTTCTGTTCAAGCGCCATCTAC | 0.518
GATGATTGTTCTCCCAGCTGATGAATTCAGGGGATCGAGTAAACAAATTTTCCTAATCTTTCTGTTCAAGCGCCATCTAC | 0.302
GATGATTGTTCTCCCAGCTGATGAATTGTTAACGTCGAGTAAACAAATTTTCCTAATCTTTCTGTTCAAGCGCCATCTAC | 0.643
GATGATTGTTCTCCCAGCTGATGAATTGTCCCAGTCGAGTAAACAAATTTTCCTAATCTTTCTGTTCAAGCGCCATCTAC | 0.266
GATGATTGTTCTCCCAGCTGATGAATTCCCGTATTCGAGTAAACAAATTTTCCTAATCTTTCTGTTCAAGCGCCATCTAC | 0.951
GATGATTGTTCTCCCAGCTGATGAATTCAAGTACTCGAGTAAACAAATTTTCCTAATCTTTCTGTTCAAGCGCCATCTAC | 0.42
GATGATTGTTCTCCCAGCTGATGAATTTCCCTCGTCGAGTAAACAAATTTTCCTAATCTTTCTGTTCAAGCGCCATCTAC | 0.234
GATGATTGTTCTCCCAGCTGATGAATTGTAGCACTCGAGTAAACAAATTTTCCTAATCTTTCTGTTCAAGCGCCATCTAC | 0.959
GATGATTGTTCTCCCAGCTGATGAATTCTATCAATCGAGTAAACAAATTTTCCTAATCTTTCTGTTCAAGCGCCATCTAC | 0.358
GATGATTGTTCTCCCAGCTGATGAATTGGAGTACTCGAGTAAACAAATTTTCCTAATCTTTCTGTTCAAGCGCCATCTAC | 0.523
GATGATTGTTCTCCCAGCTGATGAATTTCTACGGTCGAGTAAACAAATTTTCCTAATCTTTCTGTTCAAGCGCCATCTAC | 0.202
GATGATTGTTCTCCCAGCTGATGAATTCGTTCAATCGAGTAAACAAATTTTCCTAATCTTTCTGTTCAAGCGCCATCTAC | 0.256
GATGATTGTTCTCCCAGCTGATGAATTGCCTTGGTCGAGTAAACAAATTTTCCTAATCTTTCTGTTCAAGCGCCATCTAC | 0.59
GATGATTGTTCTCCCAGCTGATGAATTTCCACCTTCGAGTAAACAAATTTTCCTAATCTTTCTGTTCAAGCGCCATCTAC | 0.274
GATGATTGTTCTCCCAGCTGATGAATTTATCACGTCGAGTAAACAAATTTTCCTAATCTTTCTGTTCAAGCGCCATCTAC | 1.66
GATGATTGTTCTCCCAGCTGATGAATTGCTCTCGTCGAGTAAACAAATTTTCCTAATCTTTCTGTTCAAGCGCCATCTAC | 0.506

Sequence | binding signal (RPM ratio (pull-down/input))
GATGATTGTTCTCCCAGCTGATGAATTGTTATGATCGAGTAAACAAATTTTCCTAATCTTTCTGTTCAAGCGCCATCTAC | 3.78
GATGATTGTTCTCCCAGCTGATGAATTACATCCTTCGAGTAAACAAATTTTCCTAATCTTTCTGTTCAAGCGCCATCTAC | 0.461
GATGATTGTTCTCCCAGCTGATGAATTCGGAGCATCGAGTAAACAAATTTTCCTAATCTTTCTGTTCAAGCGCCATCTAC | 0.645
GATGATTGTTCTCCCAGCTGATGAATTGAAAACATCGAGTAAACAAATTTTCCTAATCTTTCTGTTCAAGCGCCATCTAC | 1.27
GATGATTGTTCTCCCAGCTGATGAATTGGGCCCATCGAGTAAACAAATTTTCCTAATCTTTCTGTTCAAGCGCCATCTAC | 0.916
GATGATTGTTCTCCCAGCTGATGAATTATATGGGTCGAGTAAACAAATTTTCCTAATCTTTCTGTTCAAGCGCCATCTAC | 0.505
GATGATTGTTCTCCCAGCTGATGAATTTTTAGCCTCGAGTAAACAAATTTTCCTAATCTTTCTGTTCAAGCGCCATCTAC | 0.414
GATGATTGTTCTCCCAGCTGATGAATTGTGACCTTCGAGTAAACAAATTTTCCTAATCTTTCTGTTCAAGCGCCATCTAC | 0.695
GATGATTGTTCTCCCAGCTGATGAATTCGAGGCATCGAGTAAACAAATTTTCCTAATCTTTCTGTTCAAGCGCCATCTAC | 0.784
GATGATTGTTCTCCCAGCTGATGAATTTAGGACCTCGAGTAAACAAATTTTCCTAATCTTTCTGTTCAAGCGCCATCTAC | 0.374
GATGATTGTTCTCCCAGCTGATGAATTCAACAAGTCGAGTAAACAAATTTTCCTAATCTTTCTGTTCAAGCGCCATCTAC | 0.357
GATGATTGTTCTCCCAGCTGATGAATTCCCGGCGTCGAGTAAACAAATTTTCCTAATCTTTCTGTTCAAGCGCCATCTAC | 0.34
GATGATTGTTCTCCCAGCTGATGAATTGCCCTTCTCGAGTAAACAAATTTTCCTAATCTTTCTGTTCAAGCGCCATCTAC | 0.466
GATGATTGTTCTCCCAGCTGATGAATTGACTCGGTCGAGTAAACAAATTTTCCTAATCTTTCTGTTCAAGCGCCATCTAC | 0.231
GATGATTGTTCTCCCAGCTGATGAATTGCATATCTCGAGTAAACAAATTTTCCTAATCTTTCTGTTCAAGCGCCATCTAC | 1.4
GATGATTGTTCTCCCAGCTGATGAATTTCATTTTTCGAGTAAACAAATTTTCCTAATCTTTCTGTTCAAGCGCCATCTAC | 0.783
GATGATTGTTCTCCCAGCTGATGAATTAGCTCCCTCGAGTAAACAAATTTTCCTAATCTTTCTGTTCAAGCGCCATCTAC | 0.291
GATGATTGTTCTCCCAGCTGATGAATTGAGCTGGTCGAGTAAACAAATTTTCCTAATCTTTCTGTTCAAGCGCCATCTAC | 0.419
GATGATTGTTCTCCCAGCTGATGAATTCAAAAGCTCGAGTAAACAAATTTTCCTAATCTTTCTGTTCAAGCGCCATCTAC | 0.216
GATGATTGTTCTCCCAGCTGATGAATTGTTACTGTCGAGTAAACAAATTTTCCTAATCTTTCTGTTCAAGCGCCATCTAC | 0.78
GATGATTGTTCTCCCAGCTGATGAATTATTAGTATCGAGTAAACAAATTTTCCTAATCTTTCTGTTCAAGCGCCATCTAC | 1.6
